Test results: paper PMC4336329 (PLoS ONE, 2015)
The whole screen tested about 310,000 compounds, of which about 2,200 (0.71%) showed an effect of 50% or more. The effect is printed as a negative number. The list shows a part of the results.

Target: human ether-à-go-go-related gene (hERG) potassium channel (human, UniProt Q12809)
Assay: primary screen, population patch clamp on CHO cells stably expressing hERG

Chain of human ether-à-go-go-related gene (hERG) potassium channel (Q12809 whole entry, looked up): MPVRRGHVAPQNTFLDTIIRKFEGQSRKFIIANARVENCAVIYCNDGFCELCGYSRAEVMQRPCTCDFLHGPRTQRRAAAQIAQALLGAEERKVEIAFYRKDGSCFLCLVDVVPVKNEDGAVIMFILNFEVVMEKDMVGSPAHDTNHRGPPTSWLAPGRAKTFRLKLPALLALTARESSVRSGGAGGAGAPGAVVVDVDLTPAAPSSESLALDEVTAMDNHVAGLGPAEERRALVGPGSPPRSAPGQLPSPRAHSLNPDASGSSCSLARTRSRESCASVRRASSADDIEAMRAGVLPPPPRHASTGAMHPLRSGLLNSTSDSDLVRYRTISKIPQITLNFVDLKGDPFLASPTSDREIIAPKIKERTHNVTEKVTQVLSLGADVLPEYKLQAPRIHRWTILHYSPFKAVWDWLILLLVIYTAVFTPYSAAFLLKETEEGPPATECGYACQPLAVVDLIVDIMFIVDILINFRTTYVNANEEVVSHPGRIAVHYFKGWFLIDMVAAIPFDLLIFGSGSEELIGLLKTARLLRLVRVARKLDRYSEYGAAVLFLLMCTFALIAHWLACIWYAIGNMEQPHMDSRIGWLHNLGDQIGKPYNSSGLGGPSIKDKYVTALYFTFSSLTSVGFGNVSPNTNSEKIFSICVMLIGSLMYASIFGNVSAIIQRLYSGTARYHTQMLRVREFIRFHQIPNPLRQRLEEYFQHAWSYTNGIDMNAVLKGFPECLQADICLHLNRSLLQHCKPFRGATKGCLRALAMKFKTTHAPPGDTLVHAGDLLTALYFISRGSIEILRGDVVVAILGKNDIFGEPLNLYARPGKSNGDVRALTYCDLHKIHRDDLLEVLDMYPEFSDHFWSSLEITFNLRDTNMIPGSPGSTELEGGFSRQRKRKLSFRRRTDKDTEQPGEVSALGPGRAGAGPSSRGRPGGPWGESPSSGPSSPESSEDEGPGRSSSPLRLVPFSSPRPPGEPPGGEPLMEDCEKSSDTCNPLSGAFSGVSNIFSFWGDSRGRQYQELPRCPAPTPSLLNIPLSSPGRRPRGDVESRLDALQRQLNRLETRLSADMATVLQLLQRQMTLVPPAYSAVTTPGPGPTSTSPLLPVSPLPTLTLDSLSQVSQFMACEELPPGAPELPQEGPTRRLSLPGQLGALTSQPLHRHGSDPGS

In order of falling “hERG current change (%, negative = inhibition) at 1uM” value:
1. CCCCn1c(N)c(N(CCC(C)C)C(=O)c2ccc3ccccc3c2)c(=O)[nH]c1=O  22%
2. CCn1c(SCC(=O)NNC(=O)c2ccc(OC)cc2)nnc1C1CC1  19.6%
3. CCC(C)C(=O)Nc1nnc(SCC(=O)NC2CCCC2)s1 (stereo not drawn)  18.5%
4. CC1=CC(C)C(CN(CCC[N+](C)(C)C)C(=O)Nc2ccccc2)C(C)C1.[I-] (stereo not drawn)  17.8%
5. O=C(OCc1c(Cl)cccc1Cl)c1cnccn1  17%
6. Cc1cc(C)c2nc(N3CCCC(C(=O)NC4CCCC4)C3)sc2c1 (stereo not drawn)  16.1%
7. COc1cc(/C=C/C(=O)OCC(=O)NCc2cccs2)ccc1OC(F)F  16%
8. COc1cccc(/C=C2\CC(C)Cc3c2nc2ccccc2c3C(=O)O)c1OC (stereo not drawn)  15.7%
9. CC1(C)OC2C(CO)OC(n3cnc4c(=S)nc[nH]c43)C2O1 (stereo not drawn)  15.1%
10. COC(=O)c1cc(COC(=O)c2cccnc2SC)oc1C  15.1%
11. COc1ccc(/C=C2\SC(=O)N(CCNC(=O)CCS(=O)(=O)c3ccc(C)cc3)C2=O)cc1  14.5%
12. O=C1NC(c2ccccc2)CCC1(Cl)Cl (stereo not drawn)  14.4%
13. COc1ccccc1NC(C#N)c1ccccc1OCc1ccccc1 (stereo not drawn)  14.2%
14. CC1=NN(c2ccccc2)C(=O)C1/C=C1/NC(=S)NC1=O (stereo not drawn)  14.2%
15. CN(C)c1ccc(C(=O)NC2CCCc3ccccc32)cc1 (stereo not drawn)  14.1%
16. CCOC(=O)c1sc(=S)n(C)c1NC(=O)c1ccccc1C  14.1%
17. Cc1ccc(Nc2ncccc2C(=O)O)cc1C  13.9%
18. CC(C)C(C(=O)NCc1ccco1)N(C(=O)CNS(=O)(=O)c1ccccc1)C1CCCC1 (stereo not drawn)  13.6%
19. COc1ccc(NC(=O)CSc2nn3c(=O)c(C)nnc3s2)cc1  13.5%
20. CC1Cc2nc(SCC(=O)N3CCOCC3)n(-c3ccccc3)c(=O)c2S1 (stereo not drawn)  13.4%
21. COc1ccc(C(=O)NCC(=O)OCC(=O)NCc2cccs2)cc1  13.3%
22. O=C(NC1CCCCC1)N(C1=NCCCCC1)c1ccc(Br)cc1  13.1%
23. COc1ccc(N2CCN(C(=O)CN(C)S(=O)(=O)c3cccs3)CC2)cc1  12.7%
24. CCOC(=O)c1nc2sc(C)c(C)c2c(=O)[nH]1  12.3%
25. CC1(c2ccc(Cl)c(Cl)c2)NC(=S)N2C1NC(=S)N2c1ccccc1 (stereo not drawn)  12.3%
26. COc1cc(C(=O)Nc2ccc(Br)cc2C(=O)c2ccccc2)cc(OC)c1OC  12.3%
27. CCOC(=O)CC(=O)Nc1ccsc1C(N)=O  11.9%
28. CC(C)CCOP(=O)(c1ccc(N(C)C)cc1)C(O)c1ccc(Cl)cc1Cl (stereo not drawn)  11.9%
29. CCOC(=O)C1=C(C)N(CC(C)C)C(=O)/C1=C\c1ccc(OCC(=O)Nc2ccccc2)cc1  11.8%
30. Oc1ccc(NCc2ccc(OCc3ccccc3)cc2)cc1  11.4%
31. COc1ccc(CCc2nnc(CCC(=O)NCc3cnc4ccccn34)o2)cc1  11.4%
32. Fc1ccc(-c2csc(N3CCOCC3)n2)cc1  11.2%
33. CCCCOC(=O)c1ccc(O)cc1  11%
34. CNc1sc(C(=O)c2ccccc2F)c(N)c1-c1nc2ccccc2s1  10.9%
35. CCOc1ccccc1NC(=O)Nc1ccc2c(c1)OCO2  10.7%
36. NC(=O)c1cc([N+](=O)[O-])c(Cl)cc1NCc1ccccn1  10.5%
37. COC(=O)c1[nH]c2ccccc2c1NC(=O)C(C)N1CC(C)OC(C)C1 (stereo not drawn)  10.2%
38. COc1ccc(-n2nc3c(c2NC(=O)C2CC2)CS(=O)C3)cc1 (stereo not drawn)  10.2%
39. CCc1cccc2c1NC(=O)[C@]21[C@@H]2C(=O)N(Cc3ccccc3)C(=O)[C@@H]2[C@@H]2CCCN21  10.1%
40. CC1=C(C(=O)OCc2ccccc2)C(c2ccccc2Cl)NC(=O)N1C (stereo not drawn)  9.79%
41. C=CCOc1ccc(/C=C/C(=O)OCC(=O)N2CCC(c3ccccc3)=N2)cc1  9.5%
42. CC(C)(C)NC(=O)NCc1ccco1  9.27%
43. COc1ccc(N(CC(=O)Nc2nc3ccc(C)cc3s2)S(=O)(=O)c2c(C)nn(C)c2C)cc1  9.07%
44. O=C(CCSc1ccc(Br)cc1)Nc1cccnc1  8.53%
45. COc1ccc2oc(C(=O)OCC(=O)Nc3cc(S(=O)(=O)N4CCOCC4)ccc3OC)c(C)c2c1  7.54%
46. COc1ccccc1C(CNC(=O)COc1ccccc1C)N1CCCC1 (stereo not drawn)  7.2%
47. N#C/C(=C\c1cccs1)C(=O)NCc1ccco1  6.94%
48. Cc1c(NC(=O)c2cc(-n3cnnc3)ccc2Cl)cccc1-c1nc2ccccc2o1  6.86%
49. CCOc1cc(C)c(C(C)C)cc1S(=O)(=O)N1CC(C)OC(C)C1 (stereo not drawn)  6.68%
50. CCCCC(=O)NC(c1ccco1)c1c(O)ccc2ccccc12 (stereo not drawn)  6.53%
51. COc1cc(CN(CCN(C)C)Cc2ccccc2)ccc1OCc1ccccc1.O=C(O)C(=O)O  6.51%
52. Cc1sc(NC(=O)c2ccco2)c(CN2CCN(c3ccccn3)CC2)c1C  6.47%
53. OC(C#CCN1CCCC1)c1ccccc1 (stereo not drawn)  5.68%
54. CC(CCc1ccccc1)NC(=O)c1ccc2nc(N3CCOCC3)sc2c1 (stereo not drawn)  5.47%
55. Cc1ccc(NC(=O)CSc2nn(-c3ccccc3)c(=S)s2)cc1S(=O)(=O)N(C)C  5.35%
56. O=C(Nc1cccc(-c2nc3ncccc3o2)c1)c1cc2ccccc2o1  5.21%
57. O=C(O)CN1C(=O)/C(=C2\C(=O)N(Cc3ccccc3Cl)c3ccccc32)SC1=S  5.2%
58. O=C(NCCc1c[nH]c2ccccc12)c1cncc(Br)c1  4.72%
59. CCN1CCN(Cc2c(C(=O)N/N=C(\C)c3ccc(Cl)c(Cl)c3)nnn2-c2nonc2N)CC1.Cl  4.17%
60. Cc1ccc(NC(=O)COC(=O)Cc2ccsc2)c(C)c1  2.91%
61. COc1ccc(NC2(C#N)CCCCC2)cc1  2.84%
62. Fc1ccccc1Nc1nc(-c2ccncc2)nc2ccccc12  2.59%
63. CCOc1ccc(NS(=O)(=O)c2ccc(OCC)c3ncccc23)cc1  2.13%
64. Cc1cc(C)cc(N2Cc3ccccc3C2)c1  1.93%
65. Cc1c(NC(N)=O)c(=O)n(-c2ccccc2)n1C  1.18%
66. Fc1ccccc1NC(=S)N(CCCN1CCOCC1)Cc1cccnc1  0.592%
67. O=[N+]([O-])c1ccc(CSC2=NCCS2)cc1  -0.335%
68. CCN(CC)S(=O)(=O)c1cc(NC(=O)CO/N=C(\N)c2ccccc2Cl)ccc1C  -0.373%
69. NS(=O)(=O)c1ccc(CCNC(=O)c2ccco2)cc1  -0.54%
70. COc1ccc(/C=C/C(=O)N2CCN(c3ccccn3)CC2)c2ccccc12  -0.658%
71. CC(C)N(C(=O)c1sc2cc([N+](=O)[O-])ccc2c1Cl)C(C)C  -0.873%
72. Cc1cc(NS(=O)(=O)c2ccc(NC(=O)NC(C)(C(F)(F)F)C(F)(F)F)cc2)no1  -1.16%
73. CCN(CC)C(=O)CSc1nnc(CSc2ncccn2)n1C  -1.28%
74. O=C(Nc1c(Cl)cc(Cl)cc1C(=O)NCCN1CCOCC1)c1ccc(Cl)cc1Cl  -2.37%
75. CN(C)C=O.Cc1ccc2nc(SCC(=O)c3c(N)n(C)c(=O)n(C)c3=O)[nH]c2c1  -3.28%
76. O=[N+]([O-])c1ccc(-n2nnnc2-c2ccccc2)cc1  -3.86%
77. CCN(CC1CCCO1)C(=O)CCc1nnc(CCc2ccccc2OC)o1 (stereo not drawn)  -4.29%
78. CCN(CC)CCn1c(NC(=O)c2ccc(C(F)(F)F)cc2)nc2ccccc21  -4.82%
79. COc1ccc(-n2c(SCC(=O)NC3CCCCC3)nc3ccsc3c2=O)cc1  -4.99%
80. COc1ccnc(Oc2ccccc2)c1C(=O)N/C=N/OCc1ccccc1F  -6.16%
81. CC(NCCc1ccc(S(N)(=O)=O)cc1)C(=O)NCc1ccccc1.O=C(O)C(=O)O (stereo not drawn)  -8.15%
82. CC(C)CN1C(=O)NC(NC(=O)c2cccs2)(C(F)(F)F)C1=O (stereo not drawn)  -8.36%
83. CCCCN(CCCNC(=O)CN1C(=O)COc2ccc(S(=O)(=O)N3CCC(C)CC3)cc21)Cc1ccccc1  -12.6%
84. CN1C(=O)C(CC(=O)NC2CCCCC2)SC1=Nc1ccccc1 (stereo not drawn)  -16.7%
85. Cc1c(NC(=O)CSc2ncnc3c2cnn3-c2ccccc2)c(=O)n(-c2ccccc2)n1C  -26%
86. O=C(CCc1nc2ccccc2c(=O)[nH]1)N1CCN(c2ccc(F)cc2)CC1  -28.8%
87. CCN1CCN(c2ccc(S(=O)(=O)N3CCOCC3)cc2NC(=O)/C=C/c2ccc([N+](=O)[O-])cc2)CC1  -50.5%
